Test results from publication PMC4336329 (PLoS ONE, 2015).
Out of some 310,000 compounds screened, about 2,200 (0.71%) showed an effect of 50% or more. Effects have a minus sign here. Some of the results follow.

The compounds below were run against human ether-à-go-go-related gene (hERG) potassium channel (human, UniProt Q12809) (assay: primary screen, population patch clamp on CHO cells stably expressing hERG).
Sequence of human ether-à-go-go-related gene (hERG) potassium channel (Q12809 whole entry, looked up): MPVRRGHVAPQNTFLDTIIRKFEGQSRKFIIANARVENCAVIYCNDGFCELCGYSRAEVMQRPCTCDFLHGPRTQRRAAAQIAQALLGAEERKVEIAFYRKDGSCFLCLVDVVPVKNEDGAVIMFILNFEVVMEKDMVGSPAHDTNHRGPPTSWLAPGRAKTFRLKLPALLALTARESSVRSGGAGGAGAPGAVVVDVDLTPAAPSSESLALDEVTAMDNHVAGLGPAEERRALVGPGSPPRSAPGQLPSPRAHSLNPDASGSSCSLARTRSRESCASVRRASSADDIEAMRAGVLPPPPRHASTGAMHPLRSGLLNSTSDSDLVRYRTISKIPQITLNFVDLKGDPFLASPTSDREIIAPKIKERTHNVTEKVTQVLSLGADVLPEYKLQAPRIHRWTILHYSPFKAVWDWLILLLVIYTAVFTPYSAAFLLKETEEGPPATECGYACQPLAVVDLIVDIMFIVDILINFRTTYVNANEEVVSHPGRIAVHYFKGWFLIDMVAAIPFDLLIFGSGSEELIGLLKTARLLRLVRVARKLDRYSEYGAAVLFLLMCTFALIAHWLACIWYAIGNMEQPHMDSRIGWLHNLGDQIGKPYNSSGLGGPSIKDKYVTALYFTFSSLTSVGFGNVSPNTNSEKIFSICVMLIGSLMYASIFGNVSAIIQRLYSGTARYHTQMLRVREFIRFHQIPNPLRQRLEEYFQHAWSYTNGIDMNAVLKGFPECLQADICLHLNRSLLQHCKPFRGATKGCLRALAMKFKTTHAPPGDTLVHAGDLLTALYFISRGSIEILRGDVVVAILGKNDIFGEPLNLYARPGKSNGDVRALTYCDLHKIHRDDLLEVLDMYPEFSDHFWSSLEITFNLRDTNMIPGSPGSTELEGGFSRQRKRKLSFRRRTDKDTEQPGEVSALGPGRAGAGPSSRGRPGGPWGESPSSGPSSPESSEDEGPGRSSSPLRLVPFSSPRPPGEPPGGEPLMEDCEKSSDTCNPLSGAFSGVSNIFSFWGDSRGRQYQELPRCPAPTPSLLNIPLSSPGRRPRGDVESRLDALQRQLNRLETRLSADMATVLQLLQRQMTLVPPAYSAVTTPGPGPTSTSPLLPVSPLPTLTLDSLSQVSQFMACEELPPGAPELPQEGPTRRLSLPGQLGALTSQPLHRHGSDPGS

Row | SMILES | hERG current change (%, negative = inhibition) at 1uM
1 | O=C1CCC([N+](=O)[O-])C(c2cccc([N+](=O)[O-])c2)N1 (centres unmarked) | 9.34%
2 | CCCc1cc(=O)[nH]c(SCC(=O)Nc2nonc2C)n1 | 7.85%
3 | CC(C)C(=O)N1CCN(c2ccccc2NC(=S)NC(=O)c2cccs2)CC1 | 0.0725%
4 | Cc1cccnc1NC(=O)c1ccc(Cl)c(S(=O)(=O)N2CCCCCC2)c1 | -10.1%
5 | CC(=O)c1sc(NC(=O)CN2C(=O)C3CCCCC3C2=O)nc1-c1ccccc1 (centres unmarked) | 1.37%
6 | Cc1cc(Cl)ccc1OCc1cn2cccnc2n1 | 2.09%
7 | Cc1nnc(NC(=O)CSc2nnc(C(C)NC(=O)c3ccccc3F)n2C)s1 (centres unmarked) | 14.6%
8 | Cc1nc(-c2ccccc2)sc1C(=O)/C=C/c1ccc(Cl)cc1 | 13.9%
9 | Cc1nc2ccc(S(=O)(=O)NCC(=O)N3CCc4ccccc43)cc2s1 | 13.3%
10 | O=C(NCc1ccccc1CN1CCCC1)C1CCN(C(=O)c2ccc(F)cc2)CC1 | 3.5%
11 | COc1ccc(NC(=O)CN(c2cccc(C(F)(F)F)c2)S(C)(=O)=O)cc1OC | 9.53%
12 | O=C(N/N=C/c1cccc(O)c1)c1ccccc1O | 10.6%
13 | Oc1c(C=Nc2ccccc2)sc2ccccc12 | 12.4%
14 | COc1ccc(NS(=O)(=O)c2cc(OC)ccc2OC)cc1 | 11.8%
15 | COc1ccccc1C(=O)NCCNc1nc2cc(C)cc(C)c2cc1C#N | 19.5%
16 | COc1ccc(-c2nc(NC(=O)Cn3c(=O)oc4ccccc43)sc2C)cc1 | 9.56%
17 | Cc1nc(SCC(=O)Nc2ccnc3ccccc23)n[nH]1 | -1.23%
18 | CCc1cc(C(=O)N2CCCC(C(=O)c3cccc4ccccc34)C2)n(C)n1 (centres unmarked) | 11.7%
19 | COc1cccc2c1-c1c(O)cccc1C2=O | 10.2%
20 | Cc1ccc(CNC(=O)CCc2nnc3ccc(NCCCN4CCCC4=O)nn23)cc1 | 9.85%
21 | CCC1=C(C(=O)OC)C(c2cc(OC)ccc2OC)C(C#N)=C(N)O1 (centres unmarked) | 19.1%
22 | Cc1ccccc1NC(=O)/C(C#N)=C/c1ccccc1C(F)(F)F | 17.9%
23 | NC1=NC(=O)CC(C(=O)Nc2cccc3ccccc23)S1 (centres unmarked) | 12.1%
24 | COc1ccc(CNC(=O)CN2C(=O)NC3(CCCc4sccc43)C2=O)cc1OC (centres unmarked) | -0.222%
25 | Cc1sc(NC(=O)c2ccco2)nc1-c1ccc2c(c1)CC(C)N2C(=O)C1CC1 (centres unmarked) | 4.86%
26 | CC(=O)c1ccc(-n2c(=O)[nH]c(=O)c3c(N)c(C(=O)c4ccc(Cl)cc4)sc32)cc1 | -2.15%
27 | COc1ccc(CC(NC(C)=O)C(=O)NC2CCN(S(=O)(=O)c3ccc(NC(C)=O)cc3)CC2)cc1OC (centres unmarked) | 11.6%

Row | SMILES | hERG current change (%, negative = inhibition) at 1uM
28 | Cc1ccc(-n2c(O)c(C=NCc3ccccn3)c3ccccc3c2=O)cc1 | 1.33%
29 | Cc1cc(S(=O)(=O)NCc2ccccc2)ccc1OCC(=O)NCC1CCCO1 (centres unmarked) | 10.8%
30 | COc1cc2[nH]c(=O)n(CCCCCC(=O)NCCCN3CCC(C)CC3)c(=O)c2cc1OC | 16.9%
31 | COc1cc(OC)c(NC(=O)c2csc(C)c2)cc1Cl | 9.8%
32 | COc1ccccc1/C=N\NC(=O)c1c(C)nc2ccc(Cl)cn12 | 13.2%
33 | COc1ccccc1NC(=O)CSc1nnnn1C | 16.4%
34 | COc1cc(C(=O)N/N=C(\C)Cn2nc([N+](=O)[O-])cc2C)ccc1O | -3.72%
35 | Cc1ccc(CN2CCN(Cc3cccc4nccnc34)CC2CCO)cc1 (centres unmarked) | -53.3%
36 | CC(C)(C)c1csc(NC(=O)c2ccncc2)n1 | 1.52%
37 | C#CCOCCOCCOCCNc1nc(N2CCN(C(=O)CCCCCCCCCCNC(=O)[C@H](CCCCN)n3cc(CCO)nn3)CC2)nc(N2CCN(C(=O)CCCCCCCCCCNC(=O)[C@@H]([C@H](C)O)n3cc(C)nn3)CC2)n1 | 4.63%
38 | COc1cc(C=O)ccc1OCCCOc1ccccc1[N+](=O)[O-] | 4.45%
39 | O=C(CC1NCCNC1=O)Nc1ccc2c(c1)OCCO2 (centres unmarked) | 6.18%
40 | O=C(NCC(=O)N(CC1CCCO1)C(C(=O)NC1CCCC1)c1cccnc1)c1ccco1 (centres unmarked) | 6.65%
41 | COC(=O)c1c(NC(=O)CN2CCCC(C)C2)c2c(C)cccc2n1C (centres unmarked) | 5.7%
42 | CSc1ccc(OC2CCCCC2NS(=O)(=O)c2ccccc2)cc1 (centres unmarked) | 12.5%
43 | COCCOC(=O)C1=C(C)OC(N)=C(C#N)C1c1cc2cccc(C)c2nc1Cl (centres unmarked) | 10.4%
44 | Cc1ccc2c(c1)c1c3n2CCN=C3CCC1.Cl | -65.6%
45 | COC(=O)[C@@]12CCCN1[C@H](c1ccc(-c3ccc(F)cc3)c(OC)c1)[C@H]1C(=O)N(C)C(=O)[C@H]12.O=C(O)C(F)(F)F | 2.03%
46 | CC1(C)CN2C(c3ccc(Cl)cc3)N2C1 (centres unmarked) | 13.6%
47 | O=c1c2c3nc4ccccc4nc3n(-c3ccc4c(c3)OCCO4)c2ncn1C1CCCC1 | 9.38%
48 | CCOC(=O)C1(CCOc2ccccc2)CCN(Cc2ccc(C(=O)OC)cc2)CC1 | -15.5%
49 | O=C(CSc1ccc(-c2ccccc2)nn1)Nc1ccc2c(c1)OCCO2 | 8.92%
50 | O=C(Nc1ccc(F)c(Cl)c1)C1CC(=O)N(Cc2ccccc2)C1 (centres unmarked) | 9.18%
51 | CCn1cc(C(=O)O)c(=O)c2cc(F)c(N3CCN(C(=S)NC(=O)c4ccccc4Cl)CC3)cc21 | 6.52%
52 | Cc1ccc(OCC(=O)Nc2ccc(-c3nnc(-c4ccco4)o3)cc2)cc1 | 12%
53 | CCN1CCN(c2nc3c(C)cccn3c(=O)c2/C=C(\C#N)S(=O)(=O)c2ccc(C)cc2)CC1 | -2.87%
